From PubChem BioAssay (NCI)
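Results reflect a 48-hour exposure of cells in 96-well plates to compound at five concentrations. GI50 marks 50% less growth.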 The source holds more than one record for some entries. This is not the full list of results. An entry can have further records. For some assays here: A record mostly stands for its own series of concentrations, which the source does not state; a value can be the end of its range. For some assays here: The records of an entry are repeated measurements (runs, samples, wells, individuals or studies). Marks in square brackets tell the records apart. Letters count within one entry.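 TGI is the concentration that stops growth completely.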

Experiments:
Assay in all cases: NCI tumour cell line growth inhibition, 48 h
[1] = tested on: RXF-631 renal
[2] = tested on: NCI-H460 lung
[3] = tested on: OVCAR-3 ovarian
[4] = tested on: A498 renal
[5] = tested on: SK-OV-3 ovarian
[6] = tested on: SW-620 colon
[7] = tested on: DMS 114 small cell lung
[8] = tested on: TK-10 renal
[9] = tested on: DLD-1 colon
[10] = tested on: IGROV1 ovarian
[11] = tested on: NCI-H226 lung
[12] = tested on: M19-MEL melanoma
[13] = tested on: SN12C renal
[14] = tested on: OVCAR-4 ovarian
[15] = tested on: SR leukemia
[16] = tested on: COLO 205 colon
[17] = tested on: RXF 393 renal
[18] = tested on: UACC-62 melanoma
[19] = tested on: SF-295 CNS
[20] = tested on: T-47D breast
[21] = tested on: SK-MEL-5 melanoma
[22] = tested on: RPMI-8226 leukemia
[23] = tested on: MCF7 breast
[24] = tested on: LOX IMVI melanoma
[25] = tested on: MOLT-4 leukemia
[26] = tested on: BT-549 breast
[27] = tested on: DU-145 prostate
[28] = tested on: KM12 colon
[29] = tested on: HT29 colon
[30] = tested on: HCC-2998 colon
[31] = tested on: NCI/ADR-RES ovarian
[32] = tested on: DMS 273 small cell lung
[33] = tested on: HOP-62 NSCLC
[34] = tested on: A549 NSCLC
[35] = tested on: HOP-92 NSCLC
[36] = tested on: HL-60(TB) leukemia
[37] = tested on: HCT-15 colon
[38] = tested on: LXFL 529 NSCLC
[39] = tested on: ACHN renal
[40] = tested on: SNB-19 CNS
[41] = tested on: NCI-H23 lung
[42] = tested on: OVCAR-8 ovarian
[43] = tested on: UO-31 renal
[44] = tested on: SF-268 CNS
[45] = tested on: NCI-H522 lung
[46] = tested on: U251 CNS
[47] = tested on: HS 578T breast
[48] = tested on: MDA-N
[49] = tested on: HCT-116 colon
[50] = tested on: MDA-MB-435
[51] = tested on: EKVX NSCLC
[52] = tested on: M14 melanoma
[53] = tested on: K-562 leukemia
[54] = tested on: SNB-75 CNS
[55] = tested on: 786-0 renal

Structure (SMILES): COc1cccc2c1C(=O)c1c(O)c3c(c(O)c1C2=O)CC(O)(C(O)CO)CC3OC1CC(N2CCOCC2)C(O)C(C)O1 (stereo not given)
- TGI [1]: 5.82 nM and 320 nM
- TGI [2]: 3.4 µM and 122 nM
- TGI [3]: 11.9 nM and 1.71 µM
- TGI [4]: 2.83 nM and 28.8 nM
- TGI [5]: 265 nM and 3.76 µM
- TGI [6]: 135 nM and 1.47 µM
- TGI [7]: < 1 nM and 38 nM
- TGI [8]: 294 nM and 12 µM
- TGI [9]: 65.1 nM and 10.4 µM
- TGI [10]: 14.5 nM and 1.13 µM
- TGI [11]: < 1 nM and 30.8 nM
- TGI [12]: 1.1 nM and 36.7 nM
- TGI [13]: 153 nM and 1.76 µM
- TGI [14]: 21.1 nM and 1.45 µM
- TGI [15]: 17.8 nM and 219 nM
- TGI [16]: 5.09 nM and 108 nM
- TGI [17]: < 1 nM and 36.8 nM
- TGI [18]: < 1 nM and 19.1 nM

Structure (SMILES): C#CC1(O)C(COP(=O)(O)OC(COCCCCCCCCCCCCCCCCCC)COP(=O)(O)OCC2OC(n3cc(F)c(=O)[nH]c3=O)CC2O)OC(n2ccc(N)nc2=O)C1O (stereo not given)
- TGI [19]: 1.96 µM [sample A, mean of 2 tests] and 19.9 µM [sample B, mean of 3 tests]
- GI50 [20]: 2.22 µM [sample A, mean of 2 tests] and 184 nM [sample B, mean of 3 tests]
- TGI [20]: > 100 µM [sample A, mean of 2 tests] and 6.19 µM [sample B, mean of 3 tests]
- TGI [21]: > 100 µM [sample A] and 7.83 µM [sample B]
- TGI [22]: 181 nM [sample A] and 66 µM [sample B]
- TGI [23]: 6.47 µM [sample A] and > 87.6 µM [sample B]
- TGI [15]: > 100 µM [sample A] and 6.75 µM [sample B]
- GI50 [24]: < 29.9 nM [sample A, mean of 2 tests] and 439 nM [sample B, mean of 3 tests]
- GI50 [25]: 382 nM [sample A, mean of 2 tests] and 28.9 nM [sample B, mean of 2 tests]

Structure (SMILES): COC1/C=C/C(C)C(C(C)C(OC)C(C)CCC(=O)C(C)C(C/C=C/N(C)C=O)OC)OC(=O)/C=C/C=C(\C)CC(OC)CC2=CC(=O)O[C@H](C2)C(C)C(OC)CC(OC)/C=C/C(C)C(OC)C1 (stereo not given in full)
- TGI [26]: 375 nM and 20.1 nM
- TGI [27]: 547 nM and > 50 µM
- TGI [28]: 1.45 µM and > 50 µM
- TGI [29]: 326 nM and > 50 µM
- TGI [30]: 103 nM and 11.4 µM
- TGI [21]: 275 nM and 12.1 nM
- TGI [31]: 437 nM and 40.4 nM
- TGI [14]: 51.3 nM and 15 µM
- TGI [15]: 1.23 µM and > 50 µM
- TGI [18]: 198 nM and 18 nM

Structure (SMILES): CCCCCCCCC/C=C/C=C/C(=O)NCC(=O)NC1C(O)C(O)C(Nc2ncnc3nc[nH]c23)OC1C(O)CO (stereo not given)
- TGI [4]: 1.04 µM and 46.9 nM
- TGI [32]: 2.5 nM and 129 nM
- TGI [30]: 3.49 nM and 282 nM
- TGI [33]: 30.4 nM and 802 nM
- TGI [34]: 3.16 µM and > 100 µM
- TGI [9]: 2.57 µM and > 100 µM
- TGI [22]: 49.7 nM and 1.15 µM
- TGI [35]: 2.24 nM and 321 nM
- TGI [36]: 12.1 nM and > 100 µM
- TGI [37]: 3.48 µM and > 100 µM
- TGI [38]: 241 nM and > 100 µM
- TGI [15]: 205 nM and > 100 µM
- TGI [39]: 3.19 µM and > 100 µM
- TGI [40]: 12.5 nM and 156 nM
- TGI [41]: 130 nM and 11.8 µM

Structure (SMILES): O=c1cc(-c2ccccc2F)[nH]c2ccc(N3CCCC3)cc12
- GI50 [26]: 1.66 nM and 35.4 µM
- TGI [42]: 464 nM and > 100 µM
- TGI [43]: 464 nM and 29.4 µM
- TGI [27]: 2.88 nM and > 100 µM
- TGI [28]: 50.7 nM and > 100 µM
- TGI [2]: 8.55 µM and > 100 µM
- GI50 [3]: < 1 nM and 44.8 nM
- TGI [3]: 2.24 nM and > 100 µM
- TGI [29]: 4.99 nM and > 100 µM
- TGI [44]: 9.11 µM and > 100 µM
- TGI [45]: 2.07 nM and > 100 µM
- TGI [5]: 1.82 µM and > 100 µM
- TGI [46]: 464 nM and > 100 µM
- TGI [21]: 114 nM and > 100 µM
- TGI [47]: 93.6 nM and > 100 µM
- TGI [22]: 1.3 µM and > 100 µM
- GI50 [35]: < 1 nM and > 100 µM
- TGI [10]: 139 nM and > 100 µM
- TGI [36]: 104 nM and > 100 µM
- TGI [48]: < 1 nM and > 100 µM
- TGI [37]: 30.1 nM and > 100 µM
- TGI [31]: 47.5 nM and > 100 µM
- TGI [15]: < 1 nM and > 100 µM
- GI50 [49]: < 1 nM and 34 nM
- TGI [49]: 8.31 µM and > 100 µM
- TGI [16]: 2.36 nM and > 100 µM
- TGI [50]: < 1 nM and > 100 µM
- TGI [41]: 238 nM and 14.6 µM
- TGI [51]: 959 nM and > 100 µM

Structure (SMILES): COc1cccc([C@H]2C/C(=N\NC(=O)C(=O)N[C@@H](C)c3ccccc3)c3ccccc3N2)c1
- TGI [33]: 9.1 µM and > 100 µM

Structure (SMILES): COc1ccc2c(c1)nnn1c3ncccc3c(N=O)c21
- TGI [52]: 9.58 µM and > 100 µM
- TGI [29]: 4.72 µM and > 100 µM
- GI50 [53]: 109 nM and 1.1 µM
- TGI [53]: 808 nM and > 100 µM
- TGI [6]: 1.34 µM and 17.3 µM
- TGI [47]: 7.95 µM and 80.5 µM
- TGI [54]: 9.35 µM and > 100 µM
- TGI [35]: 375 nM and 4.02 µM
- TGI [10]: 5.77 µM and > 100 µM
- TGI [36]: 478 nM and > 100 µM
- TGI [15]: 28.8 nM and > 100 µM
- TGI [55]: 5.81 µM and > 100 µM
- TGI [25]: 52.5 nM and > 100 µM
